Reference: the supplement of paper PMC6089552
Screen size: about 3,200 compounds; about 300 (9.4%) showed activity. The entries are a selection whose mix differs from that of the whole data set.

Test system: A673/TR/shEF
Assay: cell viability (LOESS-normalised, relative to median of negative controls) (log2 ratio); higher = more viable cells (less compound effect), active = hit call of the paper (over 3 MAD below the median)
Conditions: treatment time: 72 h
Outline: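 Viability of A673/TR/shEF Ewing sarcoma cells was determined by CellTiter-Glo luminescence. The cells, at 1,500 per well in 384-well plates, were grown with or without doxycycline from 24 h before compound addition to switch on EWS-FLI1 shRNA knockdown, then exposed for three days to library compounds at two or more concentrations or to DMSO controls. Signals were LOESS-corrected plate by plate, normalised to the negative-control median and log2-transformed.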

[1] = 0.25 µM, library screen: screen1, EWS-FLI1 expression: high (no doxycycline)
[2] = 0.25 µM, library screen: screen1, EWS-FLI1 expression: low (doxycycline-induced shRNA knockdown)
[3] = 0.25 µM, library screen: screen2, EWS-FLI1 expression: high (no doxycycline)
[4] = 0.25 µM, library screen: screen2, EWS-FLI1 expression: low (doxycycline-induced shRNA knockdown)
[5] = 2.5 µM, library screen: screen1, EWS-FLI1 expression: high (no doxycycline)
[6] = 2.5 µM, library screen: screen1, EWS-FLI1 expression: low (doxycycline-induced shRNA knockdown)
[7] = 2.5 µM, library screen: screen2, EWS-FLI1 expression: high (no doxycycline)
[8] = 2.5 µM, library screen: screen2, EWS-FLI1 expression: low (doxycycline-induced shRNA knockdown)
[9] = 2.8 µM, library screen: screen3, EWS-FLI1 expression: high (no doxycycline)
[10] = 8.3 µM, library screen: screen3, EWS-FLI1 expression: high (no doxycycline)
[11] = 8.3 µM, library screen: screen3, EWS-FLI1 expression: low (doxycycline-induced shRNA knockdown)
[12] = 25 µM, library screen: screen3, EWS-FLI1 expression: high (no doxycycline)
[13] = 25 µM, library screen: screen3, EWS-FLI1 expression: low (doxycycline-induced shRNA knockdown)
[14] = 0.025 µM, library screen: screen1, EWS-FLI1 expression: high (no doxycycline)
[15] = 0.025 µM, library screen: screen1, EWS-FLI1 expression: low (doxycycline-induced shRNA knockdown)
[16] = 25 µM, library screen: screen1, EWS-FLI1 expression: high (no doxycycline)
[17] = 25 µM, library screen: screen1, EWS-FLI1 expression: low (doxycycline-induced shRNA knockdown)

Measured: cell viability (log2)

CCCCC1C(=O)N(c2ccccc2)N(c2ccccc2)C1=O
inactive: 0.103 µM, library screen: screen3, EWS-FLI1 expression: high (no doxycycline) 0.0537 | 0.103 µM, library screen: screen3, EWS-FLI1 expression: low (doxycycline-induced shRNA knockdown) 0.0214 | [1] 0.128 | [2] 0.109 | [3] 0.0899 | [4] 0.0435 | 0.308 µM, library screen: screen3, EWS-FLI1 expression: high (no doxycycline) 0.172 | 0.308 µM, library screen: screen3, EWS-FLI1 expression: low (doxycycline-induced shRNA knockdown) 0.159 | 0.926 µM, library screen: screen3, EWS-FLI1 expression: high (no doxycycline) 0.0763 | 0.926 µM, library screen: screen3, EWS-FLI1 expression: low (doxycycline-induced shRNA knockdown) 0.0956 | [5] 0.118 | [6] 0.1 | [7] 0.084 | [8] 0.0326 | [9] 0.137 | 2.8 µM, library screen: screen3, EWS-FLI1 expression: low (doxycycline-induced shRNA knockdown) 0.112 | [10] 0.169 | [11] 0.123 | [12] 0.117 | [13] 0.141

CCCCC[C@@H](O)[C@H]1C(=O)O[C@H](C)[C@@H](O)/C=C/C=C/C=C/C=C/C=C(\C)[C@@H](O)C[C@H](O)C[C@H](O)C[C@H](O)C[C@H](O)C[C@H](O)C[C@@H]1O
inactive: [1] -0.0231 | [2] 0.00896 | [5] 0.025 | [6] 0.0993

Nc1c(S(=O)(=O)O)cc(Nc2ccc(Nc3nc(Cl)nc(Nc4cccc(S(=O)(=O)O)c4)n3)c(S(=O)(=O)O)c2)c2c1C(=O)c1ccccc1C2=O
inactive: [3] 0.0777 | [4] 0.0897 | [7] 0.111 | [8] 0.107

c1ccc(CN2CCC3(CCCc4ccccc43)CC2)cc1
inactive: [3] 0.111 | [4] 0.0384 | [7] 0.107 | [8] 0.0859

CNCC[C@@H](Oc1ccccc1C)c1ccccc1
inactive: [3] 0.229 | [4] 0.0466 | [7] 0.191 | [8] 0.138

Cc1ccc(C(=O)C(C)CN2CCCCC2)cc1 (configuration not stated)
inactive: [1] 0.0669 | [2] 0.013 | [5] 0.14 | [6] 0.00399

Cc1nc(-c2ccc(NC(=O)c3ccccc3)cc2)cs1
inactive: [1] 0.118 | [2] 0.115 | [5] 0.0995 | [6] 0.089

O=C(CCCCC(=O)Nc1c(I)cc(I)c(C(=O)O)c1I)Nc1c(I)cc(I)c(C(=O)O)c1I
inactive: [1] 0.0751 | [2] 0.0218 | [5] 0.12 | [6] 0.107

CCC(=O)c1ccc2c(c1)N(CC(C)N(C)C)c1ccccc1S2 (configuration not stated)
inactive: [1] 0.0889 | [2] 0.155 | [5] 0.168 | [6] 0.297

CC(Cc1ccc(O)c(O)c1)C(C)Cc1ccc(O)c(O)c1 (configuration not stated)
inactive: [1] 0.158 | [2] 0.0358 | [3] 0.0471 | [4] 0.078 | [5] 0.17 | [6] 0.185 | [7] 0.0738 | [8] 0.0462

C[C@@H](Oc1cc(-c2cnn(C3CCNCC3)c2)cnc1N)c1c(Cl)ccc(F)c1Cl
active: [10] -0.189 | [12] -1.08

COc1ccc(CCNCC(O)c2ccc(O)cc2)cc1OC (configuration not stated)
active: [7] -0.721 | [8] -0.108
inactive: [3] 0.167 | [4] -0.0395

COc1cc(C(C)=O)cc(OC)c1O
inactive: [1] 0.00622 | [2] 0.0628 | [5] 0.127 | [6] 0.0928

CC(C)=CCC/C(C)=C\CO
inactive: [1] 0.138 | [2] 0.0517 | [6] 0.0556
0.269: [5]

O=S(=O)(c1cccc2c(Cl)cccc12)N1CCCNCC1
active: [5] -0.211 | [16] -0.331
inactive: [14] 0.198 | [15] -0.106 | [1] 0.179 | [2] -0.113 | [3] 0.275 | [4] 0.144 | [6] -0.13 | [7] 0.128 | [8] 0.122 | [17] -0.103

CCC(C)C(=O)OC1[C@@H]2CC3=C4CC(=O)O[C@@H](c5ccoc5)[C@]4(C)CCC3[C@@](C)(C2=O)[C@@H](CC(=O)OC)C1(C)C (some centres not stated)
inactive: [1] 0.0496 | [2] 0.0641 | [5] 0.0299 | [6] 0.146

CC1=C(C(=O)O)N2C(=O)[C@@H](NC(=O)[C@H](N)c3ccccc3)[C@H]2SC1
inactive: [1] 0.0148 | [2] 0.036 | [3] 0.246 | [4] 0.109 | [5] 0.057 | [6] 0.0309 | [7] 0.1 | [8] 0.0911

Cc1cccc(C)c1NC(=O)C[N+](C)(C)C
inactive: [3] 0.174 | [4] 0.0998 | [7] 0.0786 | [8] 0.0656

CCCn1c(=O)c2[nH]c(-c3ccc(OCC(=O)NCCN)cc3)nc2n(CCC)c1=O
inactive: [3] 0.15 | [4] 0.0941 | [7] 0.152 | [8] 0.0512

Nc1ccccc1NC(=O)c1ccc(CNc2nccc(-c3cccnc3)n2)cc1
active: [9] -0.554 | [10] -1.39 | [11] -0.431 | [12] -3.23 | [13] -1.08

Cc1ccc(S(=O)(=O)/C=C/C#N)cc1
active: [5] -0.841 | [7] -0.102 | [16] -3.58 | [17] -2.12
inactive: [14] 0.231 | [15] -0.0315 | [1] 0.131 | [2] 0.0518 | [3] 0.14 | [4] -0.0223 | [6] -0.123 | [8] 0.0315

Cc1cc(O)cc(O)c1C(=O)O
inactive: [1] 0.0836 | [2] 0.00276 | [5] 0.16 | [6] 0.0121

CC1=C(C(=O)OC2CCCC2)C(c2coc3ccc(Cl)cc3c2=O)C2=C(CCCC2=O)N1 (configuration not stated)
inactive: [1] 0.123 | [2] 0.0763 | [5] 0.136 | [6] -0.0126

C=CCN1C(=O)/C(=C2\SC(=S)N(c3c(C)n(C)n(-c4ccccc4)c3=O)C2=O)c2ccccc21
inactive: [1] -0.0187 | [2] -0.00404 | [5] 0.0713 | [6] -0.0309

COc1ccc2cc3[n+](cc2c1OC)CCc1cc2c(cc1-3)OCO2
active: [7] -0.318 | 25 µM, library screen: screen2, EWS-FLI1 expression: high (no doxycycline) -1.53 | 25 µM, library screen: screen2, EWS-FLI1 expression: low (doxycycline-induced shRNA knockdown) -0.365
inactive: 0.025 µM, library screen: screen2, EWS-FLI1 expression: high (no doxycycline) 0.0792 | 0.025 µM, library screen: screen2, EWS-FLI1 expression: low (doxycycline-induced shRNA knockdown) 0.0888 | [1] 0.0876 | [2] 0.0916 | [3] 0.139 | [4] 0.0365 | [5] -0.0264 | [6] 0.141 | [8] -0.00212
